For some of these results: What follows is the remainder of the data, with few or none of the hits. Inconclusive results are not listed. The list shows a part of the results, in another mix than the full data. Calls of active or inactive are those of the source. Rule for the calls, unless noted: active = hit-call score of the fitted dose curve at least 0.9, where 1 is the maximum; inactive = score below 0.9.
How the values were obtained:
[1] = read-out: Collagen III, COL3A1 (gene 1281); assay: BSK_hDFCGF_CollagenIII: BioMAP Diversity Plus: hDFCGF Assay for Collagen III Biomarker Activity (AID 2283056); details: actives raise or lower the signal; primary human foreskin fibroblasts
Method in brief: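 Cells: human foreskin fibroblasts, primary. Dosing followed by 24 h incubation, then ELISA for collagen III. Both increases and decreases scored relative to DMSO.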

[2] = read-out: Tissue Factor, F3 (gene 2152); assay: BSK_LPS_TissueFactor: BioMAP Diversity Plus: LPS Assay for Tissue Factor Biomarker Activity (AID 2283084); details: actives raise or lower the signal; primary human HUVEC with PBMC
Method in brief: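 In this co-culture system of umbilical vein endothelium with PBMC, stimulated with LPS, cell-surface CD142 is detected by ELISA at 24 h. Endpoint values derive from bidirectional fitting, DMSO serving as baseline.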

[3] = read-out: Glutathione S-Transferase (GSTA2), GSTA2 (gene 2939); assay: LTEA_HepaRG_GSTA2: Life Technologies and Expression Analysis (LTEA) Assay for Glutathione S-Transferase (GSTA2) using HepaRG (AID 2283497); details: actives raise or lower the signal; mRNA level, 48 h
Method in brief: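 Differentiated human HepaRG cells were exposed in duplicate for 48 h in serum-free induction medium, 8 points from 100 uM top in half-log steps, 0.5% DMSO. GSTA2 mRNA was measured by TaqMan qRT-PCR, normalized to ACTB, GAPDH and POLR2A; bidirectional fit versus DMSO.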

[4] = read-out: Transforming growth factor beta 1 (TGFb1), TGFB1 (gene 7040); assay: BSK_KF3CT_TGFb1: BioMAP Diversity Plus: KF3CT Assay for Transforming growth factor beta 1 (TGFb1) Biomarker Activity (AID 2283072); details: actives raise or lower the signal; primary human keratinocytes with fibroblasts
Method in brief: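 Human keratinocyte plus foreskin fibroblast primary co-culture, dosed with chemical for 24 h. TGF-b1 quantified by ELISA. Activity fitted bidirectionally against DMSO negative control as baseline.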

[5] = BSK_hDFCGF_SRB: Viability Assessment in the BioMAP Diversity Plus: hDFCGF Assay (AID 2283061); details: primary human foreskin fibroblasts;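 note: cells exposed to compound for 24 h before the read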
Method in brief: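 Cells were dosed with test chemical, cultured 24 h, fixed with 10% TCA, then stained with 0.1% SRB and read at 560 nm. The fibroblasts were human foreskin primary cells, and DMSO served as baseline.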

[6] = read-out: Epidermal growth factor receptor (EGFR), EGFR (gene 1956); assay: BSK_hDFCGF_EGFR: BioMAP Diversity Plus: hDFCGF Assay for Epidermal growth factor receptor (EGFR) Biomarker Activity (AID 2283057); details: actives raise or lower the signal; primary human foreskin fibroblasts
Method in brief: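 Primary human foreskin fibroblasts were exposed to compound for 24 h, after which cell-surface EGFR was quantified by ELISA. Activity was fitted bidirectionally against the DMSO negative control as baseline.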

[7] = read-out: TIMP metallopeptidase inhibitor 2 (TIMP2), TIMP2 (gene 7077); assay: BSK_KF3CT_TIMP2: BioMAP Diversity Plus: KF3CT Assay for TIMP metallopeptidase inhibitor 2 (TIMP2) Biomarker Activity (AID 2283071); details: actives raise or lower the signal; primary human keratinocytes with fibroblasts
Method in brief: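 Human primary keratinocyte/foreskin fibroblast co-culture dosed with chemical and sampled at 24 h. TIMP-2 levels quantified by ELISA; bidirectional fitting against DMSO negative control as baseline.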

[8] = CCTE_Deisenroth_5AR_NBTE_acceptor: CCTE's 5alpha-reductase NanoBRET Target Engagement Assay - Autofluorescence Screen, Deisenroth Lab (AID 2284321); details: actives raise or lower the signal;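 note: compound fluorescence in the acceptor channel under 460 nm excitation flags autofluorescence artifacts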
Method in brief: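 Chemicals diluted to a nominal 100 uM in DMSO were scanned at 460 nm excitation. Samples were read in three independent runs (n=3). Gain or loss of acceptor signal was fitted relative to DMSO.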

[9] = read-out: Plasminogen activator inhibitor-1 (PAI1), SERPINE1 (gene 5054); assay: BSK_hDFCGF_PAI1: BioMAP Diversity Plus: hDFCGF Assay for Plasminogen activator inhibitor-1 (PAI1) Biomarker Activity (AID 2283066); details: actives raise or lower the signal; primary human foreskin fibroblasts
Method in brief: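 Human foreskin fibroblasts in the hDFCGF system were dosed with compound for 24 h; PAI-1 was quantified by ELISA. Bidirectional curve fitting used DMSO as negative control and baseline.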

[10] = target: Estrogen receptor (Homo sapiens) (UniProt P03372); assay: OT_ERa_GFPERaERE_0480: Odyssey Thera (OT) 8-hour HeLa Transcription Induction Assay for Estrogen Receptor (AID 2283381)
Method in brief: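 HeLa cells dosed with compound and imaged by fluorescence microscopy at 8 h; GFP induction from an ERE reporter quantified by high-content image analysis and fitted as gain of signal against DMSO baseline.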

[11] = read-out: Fatty Acid-Binding Protein 1 (FABP1), FABP1 (gene 2168); assay: LTEA_HepaRG_FABP1: Life Technologies and Expression Analysis (LTEA) Assay for Fatty Acid-Binding Protein 1 (FABP1) using HepaRG (AID 2283494); details: actives raise or lower the signal; mRNA level, 48 h
Method in brief: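 Differentiated human HepaRG cells exposed 48 h in serum-free induction medium to eight half-log concentrations up to 100 uM (0.5% DMSO), duplicate. FABP1 mRNA by qRT-PCR, normalised to ACTB, GAPDH, POLR2A; bidirectional fitting against DMSO.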

[12] = read-out: Intercellular Adhesion Molecule 1 (ICAM1), ICAM1 (gene 3383); assay: LTEA_HepaRG_ICAM1: Life Technologies and Expression Analysis (LTEA) Assay for Intercellular Adhesion Molecule 1 (ICAM1) using HepaRG (AID 2283507); details: actives raise or lower the signal; mRNA level, 48 h
Method in brief: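 Gain or loss of transcript in HepaRG hepatic cells is quantified by qRT-PCR after 48 h chemical exposure (up to 100 uM, half-log steps), with DMSO as baseline.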

[13] = read-out: Insulin-like growth factor-binding protein 1 (IGFBP1), IGFBP1 (gene 3484); assay: LTEA_HepaRG_IGFBP1: Life Technologies and Expression Analysis (LTEA) Assay for Insulin-like growth factor-binding protein 1 (IGFBP1) using HepaRG (AID 2283508); details: actives raise or lower the signal; mRNA level, 48 h
Method in brief: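 mRNA induction or loss was quantified by qRT-PCR after 48 h chemical exposure of human HepaRG cells, with 0.5% DMSO as vehicle and baseline. Concentration-response over eight points up to 100 uM.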

[14] = read-out: solute carrier (SLCO1B1), SLCO1B1 (gene 10599); assay: LTEA_HepaRG_SLCO1B1: Life Technologies and Expression Analysis (LTEA) Assay for solute carrier (SLCO1B1) using HepaRG (AID 2283530); details: actives raise or lower the signal; mRNA level, 48 h
Method in brief: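 Gain or loss of SLCO1B1 mRNA is fitted against the 0.5% DMSO vehicle in human HepaRG liver cells treated 48 h at up to 100 uM in half-log steps. Expression comes from qRT-PCR normalized to endogenous controls.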

[15] = TOX21_TRB_BLA_Agonist_Followup_viability: Viability Assessment in the Tox21 Thyroid Hormone Receptor beta Agonism Beta-lactamase (BLA) Follow-Up Assay (AID 2283956; active = hit-call score of the fitted dose curve at least 0.9, where 1 is the maximum)
Method in brief: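 TRb-bla HEK293T cells (GAL4-DBD/human TRb LBD) in 2% charcoal-stripped FBS medium were exposed 18 h at 37C to 11 concentrations in triplicate. CellTiter-Glo ATP luminescence was read after 30 min at room temperature, with bidirectional fitting against DMSO.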

[16] = read-out: Matrix Metallopeptidase 1 (MMP1), MMP1 (gene 4312); assay: BSK_hDFCGF_MMP1: BioMAP Diversity Plus: hDFCGF Assay for Matrix Metallopeptidase 1 (MMP1) Biomarker Activity (AID 2283064); details: actives raise or lower the signal; primary human foreskin fibroblasts
Method in brief: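 Primary human foreskin fibroblasts exposed to chemicals for 24 h; MMP1 measured by ELISA. Cytotoxicity tracked by SRB staining in parallel cultures; bidirectional fit relative to DMSO.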

[17] = read-out: Matrix Metallopeptidase 9 (MMP9), MMP9 (gene 4318); assay: BSK_KF3CT_MMP9: BioMAP Diversity Plus: KF3CT Assay for Matrix Metallopeptidase 9 (MMP9) Biomarker Activity (AID 2283074); details: actives raise or lower the signal; primary human keratinocytes with fibroblasts
Method in brief: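 Human keratinocyte and foreskin fibroblast co-culture exposed to chemicals for 24 h; MMP9 biomarker measured by ELISA, bidirectional fitting relative to DMSO; cytotoxicity tracked by SRB total protein staining in parallel cultures.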

[18] = read-out: Tissue Factor, F3 (gene 2152); assay: BSK_CASM3C_TissueFactor: BioMAP Diversity Plus: CASM3C Assay for Tissue Factor Biomarker Activity (AID 2283052); details: actives raise or lower the signal; primary human coronary artery smooth muscle cells;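 note: cell surface tissue factor protein level read by ELISA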
[19] = BSK_hDFCGF_Proliferation: Cell Proliferation Assessment in the BioMAP Diversity Plus: hDFCGF Assay (AID 2283059); details: primary human foreskin fibroblasts;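 note: curves fitted for both rise and fall of signal versus DMSO baseline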
Method in brief: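 Sub-confluent human foreskin fibroblast cultures receive test chemical […]. Relative cell number is quantified by sulforhodamine B staining (0.1%, after 10% TCA fixation) at 560 nm, with bidirectional fitting referenced to DMSO.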

[20] = read-out: Phosphatase and tensin (PTEN), PTEN (gene 5728); assay: LTEA_HepaRG_PTEN: Life Technologies and Expression Analysis (LTEA) Assay for Phosphatase and tensin (PTEN) using HepaRG (AID 2283523); details: actives raise or lower the signal; mRNA level, 48 h
Method in brief: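 HepaRG cells, 48 h after plating, exposed in duplicate for 48 h in serum-free induction medium to 8 half-log concentrations up to 100 uM (0.5% DMSO). PTEN mRNA by qRT-PCR, normalized to ACTB, GAPDH, POLR2A; bidirectional fit versus DMSO.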

[21] = CCTE_Harrill_HTTr_CellCount_MCF7: CCTE's Cell Proliferation Assessment for the High-Throughput Transcriptomics (HTTr) Platform, Harrill Lab (AID 2284012; active = hit-call score of the fitted dose curve at least 0.9, where 1 is the maximum;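 note: cells exposed to compound for six hours; intended direction is loss of nuclei count meaning fewer cells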)
Method in brief: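 MCF-7 cells were exposed for 6 h to an eight-point dilution series; Hoechst-labeled nuclei were counted by high content imaging. Curves were fitted bidirectionally against DMSO as negative control and baseline, with signal loss indicating reduced cell count.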

Sequence of UniProt P03372 (P03372 whole entry, looked up): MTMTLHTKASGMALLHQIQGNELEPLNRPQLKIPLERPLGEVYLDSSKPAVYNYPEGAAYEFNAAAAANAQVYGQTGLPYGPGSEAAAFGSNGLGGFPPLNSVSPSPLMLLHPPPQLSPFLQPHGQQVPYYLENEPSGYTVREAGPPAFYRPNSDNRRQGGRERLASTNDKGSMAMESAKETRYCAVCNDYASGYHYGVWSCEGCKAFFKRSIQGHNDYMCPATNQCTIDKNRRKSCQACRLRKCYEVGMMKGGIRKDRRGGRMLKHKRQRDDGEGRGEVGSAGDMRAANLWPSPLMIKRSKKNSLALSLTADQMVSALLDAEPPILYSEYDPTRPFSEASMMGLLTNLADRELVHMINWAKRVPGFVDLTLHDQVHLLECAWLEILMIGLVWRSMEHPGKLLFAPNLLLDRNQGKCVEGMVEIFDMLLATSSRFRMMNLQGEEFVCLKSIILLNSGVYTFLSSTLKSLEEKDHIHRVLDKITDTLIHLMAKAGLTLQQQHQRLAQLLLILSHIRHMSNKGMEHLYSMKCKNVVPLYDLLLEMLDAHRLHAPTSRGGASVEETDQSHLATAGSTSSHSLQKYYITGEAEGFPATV

## O=C(OC[C@H]1O[C@@H](OC(=O)c2cc(O)c(O)c(OC(=O)c3cc(O)c(O)c(O)c3)c2)[C@H](OC(=O)c2cc(O)c(O)c(OC(=O)c3cc(O)c(O)c(O)c3)c2)[C@@H](OC(=O)c2cc(O)c(O)c(OC(=O)c3cc(O)c(O)c(O)c3)c2)[C@@H]1OC(=O)c1cc(O)c(O)c(OC(=O)c2cc(O)c(O)c(O)c2)c1)c1cc(O)c(O)c(OC(=O)c2cc(O)c(O)c(O)c2)c1
[1]
  outcome: inactive
[2]
  outcome: inactive
[3]
  AC50: active: 10.4 µM

## COC(=O)CSc1cc(N=c2sc(=O)n3n2CCCC3)c(F)cc1Cl
[4]
  outcome: inactive

## C=C(C)C(=O)O[C@H]1C[C@@H]2CC[C@@]1(C)C2(C)C
[5]
  AC50: active: 27.1 µM

## CCCCC(CC)COC(=O)CC(C(=O)OCC(CC)CCCC)S(=O)(=O)O (configuration not stated)
[6]
  outcome: inactive
[7]
  AC50: active: 11.7 µM
[8]
  AC50: active: 50 µM

## NCCOCCOCCN
[9]
  outcome: inactive

## Cn1c(=O)c2[nH]cnc2n(C)c1=O
[5]
  outcome: inactive
[10]
  outcome: inactive
[11]
  outcome: inactive
[12]
  outcome: inactive
[13]
  outcome: inactive
[14]
  outcome: inactive
[15]
  outcome: inactive

## CCN(CC)c1ccc(N=Nc2ccccc2)cc1
[16]
  outcome: inactive

## Oc1ccc(Cc2ccccc2O)cc1
[17]
  outcome: inactive

## COC(=O)c1ccc(C(=O)OC)cc1
[18]
  outcome: inactive

## COc1ccc(OC(F)(F)F)cc1CN[C@H]1CCCN[C@H]1c1ccccc1
[19]
  AC50: active: 19.7 µM
[20]
  AC50: active: 80.9 µM
[21]
  outcome: inactive

— PubChem BioAssay (EPA / NIEHS)
